Tested on: soya bean plants
Experiment: Regulation of the growth of soya bean plants
Conditions: 0.1, 0.5 and 1.5 kg a.i./ha, 25% emulsifiable concentrate, about 5 weeks after application
Excerpt: (a) Soya beans of the "Hark" variety are sown in plastic containers in a mixture of earth/peat/sand (6:3:1). The containers are put into a climatic chamber and the plants develop to the 5-6 trefoil leaf stage after about 5 weeks by optimum control of temperature, light, fertilisation and watering. The plants are then sprayed until wet at rates of application of 0.1, 0.5 and 1.5 kg a.i./ha with the aqueous spray mixture prepared from a compound of formula I formulated as a 25% emulsifiable concentrate. Evaluation is made about 5 weeks after application by comparing the average growth in height and the yield of harvested pods with those of untreated controls (=100%).
(b) Under the same test conditions as in (a), but using rates of application of 0.08 to 4 a.i./ha, the following results are obtained e.g. with 2-nitro-5-(5'-trifluoromethyl-2'-pyridyloxy)phenylphosphonic acid (compound 3): […]

COP(=O)(OC)c1cc(Oc2ccc(C(F)(F)F)cn2)ccc1[N+](=O)[O-] [Compound 1, Dimethyl 2-nitro-5-(5'-trifluoromethyl-2'-pyridyloxy)phenylphosphonate]
growth regulation effectiveness in words (growth in height and yield of harvested pods): very effective
